Reference: PubChem BioAssay AID1671194 (National Center for Advancing Translational Sciences (NCATS), 2021)
About 240 (0.17%) of roughly 140,000 compounds were called active. The inconclusive results got no clear call from the source; some entries with a clear call stand among them for comparison. The call rests on the fitted dose curve; in most records, active means well fitted inhibition curve with a large enough effect; inconclusive means small, poorly fitted or top-dose-only effect; inactive means no such curve, though single readings can be large or run the other way. A potency beside an inconclusive call is a rough fit, not a confirmed value.

Assay: Primary qHTS assay for inhibitors of alpha-synuclein gene (SNCA) expression; further: nearly all actives have a fitted effect of over 45% in size;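 on activity change, negative = inhibition: plate controls were DMSO cells for no effect and cell-free wells for full effect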
Details: HEK-293 SNCA-luciferase knock-in, luminescence, 24 h; activity change, negative = inhibition: at 57.2 µM (top of the series) unless noted
Potency means the concentration at half of the fitted maximal effect; tags describe the fitted curve by direction and shape.

| SMILES | Potency | activity change, negative = inhibition |
| --- | --- | --- |
| COc1ccccc1N1CCN(S(=O)(=O)CCNC(=O)COc2ccc(C(C)C)cc2)CC1 | inconclusive: 39.8 µM [inhibitor, single point] |  |
| O=C(c1cc(COc2ccccc2F)[nH]n1)N1CCOCC1 |  | inactive: 108% |
| Cc1cccc(N2C(=O)CSC23C(=O)N(CC(=O)NCc2ccccc2Cl)c2ccccc23)c1 (configuration not stated) | inconclusive: 5.62 µM [inhibitor, partial curve, poor fit] |  |
| COc1cccc(N2CC(C(=O)NCC(F)F)NC2=O)c1 (configuration not stated) | inconclusive: 12.6 µM [inhibitor, partial curve, poor fit] |  |
| COc1ccc(-c2nnc3n2N(C(C)=O)C(c2ccc(Cl)c(Cl)c2)=C(C(C)=O)S3)cc1 | inconclusive: 39.8 µM [inhibitor, single point] |  |
| Cc1ccc(C(=O)N2CCCC(n3cc(-c4noc(C)n4)nn3)C2)cc1 (configuration not stated) |  | inactive: -19.7% |
| CCOc1ccccc1C1NC(=O)N(CC(=O)Nc2ccc(C)c(Cl)c2)C2=C1C(=O)OC2 (configuration not stated) |  | inactive: -28.5% |
| COc1cccc(-c2ccc3ncnc(NCc4cccs4)c3c2)c1 | inconclusive: 39.8 µM [inhibitor, single point] |  |
| Cc1cccc(NC(=O)c2ccc3c(c2)CCN3S(=O)(=O)c2ccccc2)c1C | inconclusive: 39.8 µM [inhibitor, single point] |  |
| COc1ccc2c(c1)c(CN1CCc3nn(C)c(=O)n3CC1)cn2C | inconclusive: 7.94 µM [inhibitor, full curve, poor fit] |  |
| COc1ccc(S(=O)(=O)N2CCc3c(C(=O)NCCN(C)C)cccc32)cc1 | inconclusive: 7.94 µM [inhibitor, full curve, poor fit] |  |
| Cn1nc(-c2nncn2CC2CC2)c2c1CCN(C(=O)c1cn[nH]c1-c1ccccc1)C2 |  | inactive: -21.9% |
| COc1cccc(C2=CC(c3cc(Br)ccc3F)n3nnnc3N2)c1 (configuration not stated) | inconclusive: 8.91 µM [inhibitor, partial curve, poor fit] |  |
| COc1ccc(CCNC(=O)c2cc3sccc3n2Cc2ccc(Cl)cc2)cc1OC | inconclusive: 39.8 µM [inhibitor, single point] |  |
| COCC(=O)N1CCN(C(=O)CSCC(=O)O)C[C@H]1C(=O)N[C@H]1CCCNC1=O | inconclusive: 5.01 µM [inhibitor, partial curve, poor fit] |  |
| COc1ccccc1Nc1ccnc(N2CCN(C(=O)c3ccccc3Cl)CC2)n1 | inconclusive: 5.62 µM [inhibitor, partial curve] |  |
| Cc1cccc(-n2ccnc2SCC(=O)Nc2cccc3ccccc23)c1C | active: 20 µM |  |
| O=C(CC1CCCCC1)NCc1nnc2c(-c3nc(C4CC4)no3)cccn12 |  | inactive: 34.7% |
| O=C1NCCCCCCN(Cc2cccc(F)c2)[C@H]2C[C@H](C(=O)N3CCc4ccccc4C3)C[C@@H]12 | inconclusive: 3.16 µM [inhibitor, partial curve, poor fit] |  |
| CCN(C(=O)Cn1cnc2onc(-c3ccc(F)cc3)c2c1=O)c1ccc(OC)cc1 | inconclusive: 8.91 µM [inhibitor, partial curve, poor fit] |  |
| COc1cccc(NCc2nnc(C(=O)N3CCC[C@@H]3C(c3ccccc3)c3ccccc3)n2-c2cccnc2)c1 |  | inactive: 3.89% |
| CCCCC1CCCN1C(=O)c1coc(COc2cccc(F)c2F)n1 (configuration not stated) | inconclusive: 39.8 µM [inhibitor, single point] |  |
| Cc1oc2ncn(CC(C)C)c(=O)c2c1C(=O)NC(C)c1ccccc1 (configuration not stated) | inconclusive: 1.78 µM [inhibitor, partial curve, poor fit] |  |

| SMILES | Potency | activity change, negative = inhibition |
| --- | --- | --- |
| COc1cccc(NC(=O)c2c(-c3cnn(C)c3NCc3ccc(C#N)cc3)noc2C)c1 | inconclusive: 8.91 µM [inhibitor, single point] |  |
| CCN1CCSc2ccc(C(=O)NCc3ccccc3Br)cc21 | inconclusive: 0.178 µM [inhibitor, partial curve, poor fit] |  |
| CN(C)S(=O)(=O)N1CCCC(c2nnc(CN3CCCCC3)n2C)C1 (configuration not stated) | inconclusive: 15.8 µM [inhibitor, partial curve, poor fit] |  |
| O=C(NCc1c[nH]c2ncccc12)c1ccc(Cl)cc1 | inconclusive: 56.2 µM [inhibitor, single point] |  |
| COC(=O)c1ccc([C@H]2Nc3ccc(S(=O)(=O)Nc4cccc(C)c4)cc3[C@H]3C=CC[C@H]32)cc1 |  | inactive: 9.76% |
| CNc1ncccc1C(=O)N1CCCC2(C1)C(=O)N(C)c1ccccc12 (configuration not stated) |  | inactive: -0.915% |
| O=C(Cc1c[nH]c2ncc(-c3ccccc3)cc12)NC1CC1 |  | inactive: -21.9% [at 87.6 µM] |
| O=C(NCc1ccccc1)c1csc(N2CCN(c3ccc(Cl)cc3)CC2)n1 | inconclusive: 11.2 µM [inhibitor, partial curve] |  |
| COc1cccc(NC(=O)c2ccc(-c3nnc4ccc(NC(=O)C5CCC5)cn34)cc2)c1 |  | inactive: 12.6% |
| O=C(O)CCC(=O)NC1CC2(CCN(Cc3ccncc3)CC2)c2ccccc21 (configuration not stated) |  | inactive: 3.17% |
| CC(C)CNC(=O)c1cn2cc(-c3cccc(C(F)(F)F)c3)sc2n1 |  | inactive: -5.06% |
| Cc1cc(=O)n(CC(=O)Nc2ccc(Br)cc2F)c(N2CCc3ccccc3C2)n1 | inconclusive: 39.8 µM [inhibitor, single point] |  |
| O=C(c1cccs1)c1cn(CCOc2ccccc2Cl)c2ccccc12 | inconclusive: 28.2 µM [inhibitor, single point] |  |
| Cc1cc(OCC(=O)N(Cc2ccc(N(C)C)cc2)C2CCS(=O)(=O)C2)cc(C)c1Cl (configuration not stated) | inconclusive: 1.78 µM [inhibitor, full curve, poor fit] |  |
| COc1ccc(C(=O)N2CC[C@@H]3CN(c4cnccn4)[C@@H]3C2)c(OC)n1 | inconclusive: 31.6 µM [inhibitor, single point] |  |
| Cc1ccc(C2=NC3(CCN(C(=O)c4ccccc4Cl)CC3)ON2)cc1 |  | inactive: 70.9% |
| Cc1ccc(C2Cn3nnc(C(=O)N4CCC(C(=O)NCc5cccc(C)c5)CC4)c3CO2)cc1 (configuration not stated) |  | inactive: 30.7% |
| COc1ccccc1CCNC(=O)CCc1c(C)c2cc3c(C)c(C)oc3cc2oc1=O |  | inactive: -12.9% |
| CCC1=Nc2cc(C(=O)NCc3ccc(C)cc3)ccc2Sc2ccc(C)cc21 | inconclusive: 10 µM [inhibitor, partial curve, poor fit] |  |
| CNC(=O)[C@@H]1C[C@H](Oc2cccnc2)CN1C(=O)c1n[nH]c2ccccc12 |  | inactive: -25.5% |
| Cc1ncccc1Oc1ncnc(N2CCCCC(N)C2)c1C (configuration not stated) |  | inactive: -0.0657% |
| CC1(c2noc(C3CC3)n2)CCN(C(=O)CCc2nc3ccc(Cl)cc3[nH]2)CC1 |  | inactive: -27.6% |
| NC(=O)Nc1sc(-c2ccc(F)cc2)cc1C(N)=O | inconclusive: 4.82 µM [inhibitor, partial curve, poor fit] |  |

| SMILES | Potency | activity change, negative = inhibition |
| --- | --- | --- |
| CCCCOc1ccc(S(=O)(=O)NCc2csc(-c3ccc(OC)cc3)n2)cc1 | inconclusive: 17.8 µM [inhibitor, partial curve] |  |
| COc1ccc(CCNC(=O)CCc2cn(Cc3ccc(C)cc3)c3ccccc23)c(OC)c1OC | inconclusive: 39.8 µM [inhibitor, single point] |  |
| CCC(C)NC(=O)c1[nH]c2cc(C)ccc2c1Sc1ccc(Cl)cc1 (configuration not stated) |  | inactive: 15.7% |
| CCOc1ccc(C(=O)N2CCCC3(C2)NC(=O)N(Cc2cc(C)ccc2C)C3=O)cc1 (configuration not stated) | inconclusive: 2.82 µM [inhibitor, single point] |  |
| COc1ccc(-c2noc(N3CCC(C(=O)N(C)c4cc(Cl)ccc4OC)CC3)n2)cc1 | inconclusive: 39.8 µM [inhibitor, single point] |  |
| COc1ccc2oc(=O)c(-c3cn4c(n3)sc3cc(F)ccc34)cc2c1 | inconclusive: 1.26 µM [inhibitor, full curve] |  |
| COc1ccccc1Cn1cc(C(=O)c2ccc(F)cc2)c(=O)c2cc3c(cc21)OCO3 | inconclusive: 14.1 µM [inhibitor, partial curve, poor fit] |  |
| O=C(NCCc1ccc(Cl)cc1)C1CCN(Cc2ccccc2-c2cccnc2)CC1 |  | inactive: -17.2% |
| Cn1ccnc1CN1C(=O)CO[C@H](c2ccc(NC(=O)CCc3ccccc3)cc2)[C@H]1CO |  | inactive: 66.3% |
| COc1ccc(C(=O)N2CCC(n3cc(-c4nc(C)no4)nn3)CC2)c(OC)c1 | inconclusive: 7.94 µM [inhibitor, full curve] |  |
| COc1ccc(-c2cc(C(=O)NC3CC3)c3cnn(C)c3n2)cc1 |  | inactive: 141% [at 87.6 µM] |
| Cc1cc(F)ccc1NC(=O)c1ccc2nc(Cc3ccccc3)oc2c1 | inconclusive: 39.8 µM [inhibitor, single point] |  |
| COc1ccc(-n2ccn(CC(=O)NCc3ccc(C)cc3)c(=O)c2=O)cc1OC | inconclusive: 7.08 µM [inhibitor, single point] |  |
| CCCn1c(C)cnc1CC1CCCN(C(=O)CC2CCCC2)C1 (configuration not stated) | inconclusive: 3.16 µM [inhibitor, full curve, poor fit] |  |
| CCn1cc(-c2ccc(Cl)cc2)cc1C(=O)NCCOC |  | inactive: 1.77% |
| COc1ccc(C(=O)N[C@@H]2CCC[C@@H]2C(=O)NCc2c(C)n[nH]c2C)cc1 |  | inactive: 2.02% |
| CC(=O)N1CCC(N2CC3CC(C2)[C@H]2CCCC(=O)N2C3)CC1 (some centres not stated) | inconclusive: 3.55 µM [inhibitor, single point] |  |
| CC(=O)NC(C)c1nc2ccccc2n1Cc1ccccc1Cl (configuration not stated) |  | inactive: 0.417% |
| O=C(NCc1ccc(F)cc1)c1nnc(Cc2cccc(F)c2)o1 | inconclusive: 12.6 µM [inhibitor, partial curve, poor fit] |  |
| Cc1nnc([C@@H]2CC(F)(F)CN2C(=O)COc2ccc(F)cc2)o1 | inconclusive: 39.8 µM [inhibitor, single point] |  |
| Cc1ccc(C(=O)N2C[C@@H](CO)[C@H](c3ccccn3)C2)cc1F |  | inactive: 1.54% |
